Reference: the supplement of paper PMC4967469
The IC50 comes from the fitted curve, where viability falls to half of the control; a fit beyond the top or the lowest dose is shown as a bound at that dose. AUC is the area under the same curve over the 256-fold range up to the top dose, as a fraction: 1 means no effect, lower means more sensitive. For some assays here: Where the top dose is marked as inferred, it comes from the curve model; the source does not state it.

Columns and labels:
Experiment in all cases: Viability of human cancer cell lines after 72 h of drug (GDSC screen)
Vorinostat = compound: O=C(CCCCCCC(=O)Nc1ccccc1)NO [Vorinostat]; conditions: top dose 10 µM
Experimental: (§1)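 Human cancer cell lines in 384-well plates, medium with 10% serum, drug for 72 h over a 256-fold dose range (nine 2-fold or five 4-fold steps up to the top dose). Adherent lines were fixed and stained with the nucleic acid dye Syto60, suspension lines read with resazurin; signal relative to control wells, capped at 0 and 100%. One two-parameter sigmoid per drug and line, fitted in a mixed model over all curves with the slope shared within a line.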

SN-38 = compound: CCc1c2c(nc3ccc(O)cc13)-c1cc3c(c(=O)n1C2)COC(=O)[C@]3(O)CC [SN-38]; conditions: top dose 0.05 µM; top dose inferred
Experimental: as §1

Axitinib = compound: CNC(=O)c1ccccc1Sc1ccc2c(/C=C/c3ccccn3)n[nH]c2c1 [Axitinib]; conditions: top dose 2 µM
Experimental: as §1

Dabrafenib = compound: CC(C)(C)c1nc(-c2cccc(NS(=O)(=O)c3c(F)cccc3F)c2F)c(-c2ccnc(N)n2)s1 [Dabrafenib]; conditions: top dose 10 µM
Experimental: as §1

Methotrexate = compound: CN(Cc1cnc2nc(N)nc(N)c2n1)c1ccc(C(=O)N[C@@H](CCC(=O)O)C(=O)O)cc1 [Methotrexate]; conditions: top dose 0.2 µM
Experimental: as §1

Row | Cell Line | AUC (Vorinostat) | IC50 (Vorinostat) | AUC (SN-38) | IC50 (SN-38) | AUC (Axitinib) | IC50 (Axitinib) | AUC (Dabrafenib) | IC50 (Dabrafenib) | AUC (Methotrexate) | IC50 (Methotrexate)
1 | EW-22 (Ewing sarcoma, adherent) | 0.686 | 2.03 µM | 0.21 | 0.000458 µM | 0.971 | > 2 µM | 0.981 | > 10 µM | 0.872 | 0.177 µM
2 | EW-24 (Ewing sarcoma, semi-adherent) | 0.788 | 3.83 µM | 0.824 | 0.0251 µM | 0.97 | > 2 µM | 0.981 | > 10 µM | 0.947 | > 0.2 µM
3 | EoL-1-cell (haematopoietic neoplasm, suspension) | 0.384 | 0.313 µM | 0.529 | 0.00371 µM | 0.023 | < 0.00781 µM | 0.674 | 1.79 µM | 0.395 | 0.00667 µM
4 | FLO-1 (oesophagus, adherent) | 0.622 | 1.57 µM | 0.878 | > 0.05 µM | 0.922 | > 2 µM | 0.792 | 6.99 µM | 0.882 | > 0.2 µM
5 | FTC-133 (thyroid, adherent) | 0.806 | 5.72 µM | 0.642 | 0.00803 µM | 0.979 | > 2 µM | 0.969 | > 10 µM | 0.958 | > 0.2 µM
6 | FU97 (stomach, adherent) | 0.685 | 2.09 µM | 0.831 | 0.0328 µM | 0.841 | 1.46 µM | 0.853 | 8.2 µM | 0.98 | > 0.2 µM
7 | FU-OV-1 (ovary, adherent) | 0.841 | > 10 µM | 0.879 | > 0.05 µM | 0.973 | > 2 µM | 0.962 | > 10 µM | 0.957 | > 0.2 µM
8 | G-292 Clone A141B1 (osteosarcoma, adherent) | 0.823 | > 10 µM | 0.817 | > 0.05 µM | 0.899 | > 2 µM | 0.657 | 2.23 µM | 0.939 | > 0.2 µM
9 | G-361 (melanoma, adherent) | 0.356 | 0.254 µM | 0.841 | 0.0328 µM | 0.977 | > 2 µM | 0.12 | 0.0404 µM | 0.915 | > 0.2 µM
10 | G-401 (kidney, adherent) | 0.787 | 4.81 µM | 0.71 | 0.0131 µM | 0.917 | > 2 µM | 0.889 | > 10 µM | 0.881 | > 0.2 µM
11 | G-402 (soft tissue, adherent) | 0.712 | 3.07 µM | 0.597 | 0.00632 µM | 0.488 | 0.114 µM | 0.824 | 8.83 µM | 0.977 | > 0.2 µM
12 | G-MEL (melanoma, adherent) | 0.417 | 0.372 µM | 0.476 | 0.00269 µM | 0.939 | > 2 µM | 0.037 | < 0.0391 µM | 0.976 | > 0.2 µM
13 | GA-10 (Burkitt lymphoma, suspension) | 0.547 | 0.82 µM | 0.92 | > 0.05 µM | 0.969 | > 2 µM | 0.975 | > 10 µM | 0.869 | 0.138 µM
14 | GB-1 (glioma, adherent) | 0.723 | 3.03 µM | 0.532 | 0.00388 µM | 0.967 | > 2 µM | 0.898 | > 10 µM | 0.982 | > 0.2 µM
15 | GDM-1 (acute myeloid leukaemia, suspension) | 0.727 | 2.66 µM | 0.543 | 0.00408 µM | 0.908 | > 2 µM | 0.772 | 3.7 µM | 0.987 | > 0.2 µM
16 | GI-1 (glioma, adherent) | 0.71 | 2.37 µM | 0.397 | 0.00165 µM | 0.95 | > 2 µM | 0.94 | > 10 µM | 0.986 | > 0.2 µM
17 | GI-ME-N (neuroblastoma, adherent) | 0.734 | 3.78 µM | 0.497 | 0.00306 µM | 0.871 | > 2 µM | 0.664 | 2.12 µM | 0.838 | > 0.2 µM
18 | GOTO (neuroblastoma, adherent) | 0.519 | 0.708 µM | 0.294 | 0.00075 µM | 0.868 | > 2 µM | 0.974 | > 10 µM | 0.955 | > 0.2 µM
19 | GR-ST (lymphoblastic leukaemia, suspension) | 0.758 | 4.14 µM | 0.468 | 0.0025 µM | 0.964 | > 2 µM | 0.816 | 7.04 µM | 0.651 | 0.0359 µM
20 | H4 (glioma, adherent) | 0.651 | 1.63 µM | 0.408 | 0.00175 µM | 0.82 | 1.13 µM | 0.946 | > 10 µM | 0.983 | > 0.2 µM
21 | H290 (mesothelioma, adherent) | 0.513 | 0.678 µM | 0.534 | 0.00384 µM | 0.907 | > 2 µM | 0.915 | > 10 µM | 0.985 | > 0.2 µM
22 | H513 (mesothelioma, semi-adherent) | 0.868 | > 10 µM | 0.788 | 0.0273 µM | 0.985 | > 2 µM | 0.963 | > 10 µM | 0.864 | > 0.2 µM
23 | H2369 (mesothelioma, adherent) | 0.721 | 2.72 µM | 0.709 | 0.0125 µM | 0.881 | > 2 µM | 0.829 | 6.51 µM | 0.967 | > 0.2 µM
24 | H2373 (mesothelioma, adherent) | 0.698 | 2.62 µM | 0.611 | 0.00682 µM | 0.861 | > 2 µM | 0.949 | > 10 µM | 0.983 | > 0.2 µM
25 | H2461 (mesothelioma, adherent) | 0.922 | > 10 µM | 0.747 | 0.0194 µM | 0.98 | > 2 µM | 0.823 | 7.92 µM | 0.938 | > 0.2 µM
26 | H2595 (mesothelioma, adherent) | 0.732 | 3.77 µM | 0.873 | > 0.05 µM | 0.898 | > 2 µM | 0.972 | > 10 µM | 0.979 | > 0.2 µM
